Data from the supplement of paper PMC3334620.
The full ranking holds about 33,000 sequences; the median of “E-score (-0.5 to 0.5)” is about -0.035, and the highest 2% start at about 0.34. Some of the results follow.

Molecular target: T1, Mot3 (UniProt P54785)
T1 sequence: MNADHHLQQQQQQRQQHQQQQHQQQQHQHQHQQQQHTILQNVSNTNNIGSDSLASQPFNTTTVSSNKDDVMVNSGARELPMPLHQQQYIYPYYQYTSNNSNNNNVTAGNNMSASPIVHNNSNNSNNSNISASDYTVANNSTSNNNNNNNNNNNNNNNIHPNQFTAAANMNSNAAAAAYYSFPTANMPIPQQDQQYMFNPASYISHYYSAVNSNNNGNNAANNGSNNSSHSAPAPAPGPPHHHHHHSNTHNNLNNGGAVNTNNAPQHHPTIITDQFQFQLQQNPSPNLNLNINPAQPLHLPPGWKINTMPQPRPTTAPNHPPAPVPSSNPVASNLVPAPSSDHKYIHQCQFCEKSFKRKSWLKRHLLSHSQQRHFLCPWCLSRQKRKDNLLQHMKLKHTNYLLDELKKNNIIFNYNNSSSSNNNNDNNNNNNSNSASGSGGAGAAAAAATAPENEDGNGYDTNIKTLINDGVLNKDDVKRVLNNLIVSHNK
Test: PBM E-score (8-mer binding enrichment) (E-score (-0.5 to 0.5)); higher = stronger / more preferred TF binding; most listed sequences are background and not binding sites
Details: protein concentration: 200 nM; construct: GST-full length
Summary of the method: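 For each ungapped eight-base word taken together with its reverse complement, the Universal PBM Analysis Suite assigned an E-score. Binding data came from GST-tagged yeast transcription factors, applied at about 100-200 nM, on universal all-10-mer Agilent arrays made double-stranded by primer extension. Fluorescent anti-GST marked bound protein, and scans were normalised with masliner.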

Sequence	PBM E-score
ACCACTGA	-0.0487
CGTGTATC	0.262
CCCCCTAC	-0.198
CCAATGAA	-0.154
CATCACAG	-0.0237
CCCCTAAC	-0.182
CCCGGCGA	-0.196
GAAGCGGA	-0.0807
AGGACTAT	-0.102
GAGCAAAC	0.0175
CTATCTTC	0.0112
GCAAACGA	-0.0677
ACGCGAGA	0.126
AACGCCAT	0.0328
CCAACGCG	0.137
CTGCATGA	-0.205
AACGACGT	0.175
CACGAAGG	0.182
ATGACCAT	0.0148
ACTGTAGC	-0.0778
AAAAAAAA	0.196
CTCTAGCA	-0.0349
CGGCCGTA	-0.199
AATCTTGG	-0.165
AGGAAGGG	-0.333

Sequence	PBM E-score
TCCTCCCA	-0.214
CAGTGAGC	-0.195
CCGCCAGG	0.196
GATTATCC	-0.148
CCACGGGA	-0.187
CACCCACA	-0.0862
AGGTACAC	0.366
TAGACCCA	-0.0269
GCCGGGGA	-0.311
GGAGCCAA	-0.117
AACGCGGA	0.181
GCTACTAA	0.0556
ATAGCATA	0.0444
CGCCCCCA	-0.152
ATTAGGGG	-0.204
TGCGACAA	0.134
GAAGAAGC	-0.174
AGGGGTTG	-0.174
ATGGTACA	-0.043
ACCCGAAC	-0.0659
AACGTCTG	-0.0633
GAAAGCTA	-0.0214
AGACAGTA	-0.0342
AGGGGTAG	-0.149
GATTTTCA	0.0207

Sequence	PBM E-score
AATCCTAA	0.0321
TCCACAAA	-0.0932
ACTCAACT	-0.0404
AATATCAT	0.0978
ACGAGACT	-0.0374
AAGGAGAT	0.0547
CTAGCAAA	0.00932
AAGCCACT	-0.172
ACCCCTCC	-0.244
AAGCAGAA	0.108
CCTAGTGC	0.0918
AATTGGGC	0.0644
CCGCAGGC	0.272
CATTCGAC	-0.0327
ACCCTACA	0.142
TGAATGCA	0.0537
CGTTCCCC	-0.0559
CTACGGCC	-0.197
CGGGGCAC	-0.205
CCGGAATC	-0.222
GGAATCCA	-0.238
ACGATTTA	0.17
ACGTATGA	0.0587
GGTAACGA	-0.0384
GAAGCTAA	-0.163

Sequence	PBM E-score
AGCTCGAT	-0.261
GATCTGGA	-0.185
ACAGTATA	0.111
CTGTAAAA	0.302
GCTACTCC	-0.317
TCTGGCAA	-0.0937
AAAAAATA	0.0537
AGTTCTCA	-0.0155
TATACCAA	0.0932
GTATTGAA	0.122
CGGCGAAG	-0.169
CGCGCGTA	0.17
AACAAATC	-0.00449
TGTCTCAA	-0.078
GTCTACCA	-0.15
AGGTTATG	0.112
GCTATCAA	-0.123
GGCATGAA	-0.0416
AATGCAAA	0.086
GATTAACC	-0.287
CCGCGTCC	-0.105
AATGTAAT	0.377
AGAACGCC	-0.0172
ACAAACTA	0.139
ATTCTTAG	-0.0678

Sequence	PBM E-score
GGCATCTA	0.0154
GGACGTCA	-0.178
CCCCCGTC	-0.167
AATTCTCG	-0.13
ACACCCTG	-0.0541
AGGCACTC	0.481
CGGCTACA	-0.0371
GCTTTTCA	-0.0394
CTCTCCCC	-0.224
CGTCACGA	-0.146
AATGTTGT	0.223
GTCACGTA	0.198
CTCGCGAG	-0.241
AATAGATA	0.123
CCGGCGAA	-0.103
CGGTCCCA	-0.296
ACCCTGTC	-0.0706
AGTAAGTA	0.107
AATCCGGG	-0.32
CACGCCGA	-0.204
GTTCCACA	-0.0582
GGGCACCA	0.171
CGGTCGCA	-0.104
CTCTCTAC	0.0332
CCGACACG	0.033

Sequence	PBM E-score
ATGGGTGA	-0.0127
ATGGTCTC	-0.165
ATCGAGCA	-0.158
ACTGGTTC	-0.0839
CCGCTGCG	-0.203
GGAGCCAC	-0.278
ACTATTAT	-0.0178
CAAATGGG	-0.0327
CGCAGGCA	0.482
ATACGTAA	0.255
CCAACCAG	-0.072
CACCTTAC	-0.00082
AGGCTCTG	0.136
TAGAAGGA	0.151
AACAGAAC	-0.0318
AAATGGTG	0.138
TCAACTGA	-0.123
AGGATAGC	0.00141
ACCGTCTG	-0.0744
ACACATGA	0.288
ATTGATTC	0.0464
ATAGCGTG	0.125
TATCCAGA	-0.0535
CCGGGCCG	-0.401
ATACAGTC	-0.115

Sequence	PBM E-score
AAAAGGGG	-0.00488
GGAAATAA	0.199
ATCTTCGC	-0.0597
ACTGTATC	-0.0209
AACGCACC	0.0784
ATGGAATG	-0.0529
CGAGATAA	0.0428
ATAGGTGC	0.24
TCGTAGAA	0.0868
AGGCATAG	0.274
CATTACAG	0.287
CCCCGGCA	-0.275
AGCACCTA	0.199
CATGACGG	0.0447
CGGGTTAA	0.0785
GGGGTGTA	0.0304
CGCCATCA	-0.0834
AGAGTGAC	-0.313
GTAATTAA	0.239
GGTATCTA	-0.042
CTAACGTA	0.127
TCATATGA	-0.0309
